Data from PubChem BioAssay AID1918931 (Molecular Pharmacology Branch, DTP, NCI, 2023).
For part of its entries the source gives two or more results. This is not the full list of results. The source may hold further records. The values listed for one entry repeat one measurement in other runs, samples, wells, individuals or studies. Signs of the kind (2×) stand for listed records that agree. A date in brackets names the month of the test.

Test system: 138582-337-R-J1-PDC complex spheroid viability
Assay: Anticancer human tumor 138582-337-R-J1-PDC patient-derived Merkel cell tumor cell line growth inhibition
Conditions: for viability, T/C: stronger effect = lower value
Excerpt: Multicellular complex tumor spheroid response to LSD1 Inhibitor Iadademstat in combination with a variety of drugs and investigational agents in selected tumor cell lines
The current study was undertaken to assess response to LSD1 inhibitors in combination with standard-of-care drugs and investigational agents in solid tumor complex spheroid models as well as in the K-562 leukemia. Complex spheroids include a stromal component modeled by human endothelial cells (HUVEC) and fibroblasts modeled by human mesenchymal stem cells (MSCs). The concentration ranges selected for each drug and investigational agent were based upon clinically achievable concentrations if the clinical Cmax of the agent was known.
Compounds. The drugs and investigational agents used in this study are listed on Table 1. All of the agents used, including staurosporine (NSC755774) and gemcitabine (NSC613327), were obtained from the Developmental Therapeutics Program, NCI. FDA-approved anticancer drugs are available from the NCI at http://dtp.nci.nih.gov/branches/dscb/oncology_drugset_explanation.html. Drugs and investigational agents were >95% pure by proton nuclear magnetic resonance (NMR) and liquid chromatography/mass spectrometry (LC/MS). Stock solutions were prepared at 400x in DMSO, stored at -70 degrees C, and diluted in fresh medium prior to their use. The final concentration of DMSO in cell culture wells never exceeded 0.25% (v/v). The FDA-approved anticancer drug set is available from the Developmental Therapeutics Program at https://dtp.cancer.gov/organization/dscb/obtaining/available_plates.htm. All drugs and investigational agents were tested over a range starting from a high concentration at or near the clinical Cmax and decreasing in half-log increments. If the clinical Cmax for an agent had not been determined, the highest concentration tested was 10 microM.
Cell Lines. The patient-derived cancer cell (PDC) lines: 292921-168-R-J2-PDC, K24384-001-R-PDC, and 521955-158-R2-J5-PDC pancreatic carcinomas, 556581-035-R-J1 ovarian carcinoma, 324938-238-R-J1-PDC, 855422-203-R-J1-PDC and 883617-216-R-J1-PDC urothelial bladder carcinomas, 743489-274-T-PDC renal cell carcinoma, 138582-R-J1 Merkel cell tumor, K60290-347-R-J1 and K57222-313-R-J1-PDC glioblastomas, 653999-131-R-J2-PDC, LG0703-F948-PDC, and 349418-098-R-PDC non-small cell lung carcinomas, 885512-296-R-J2-PDC, 171881-019-R-J1-PDC breast carcinomas and 186277-243-T-J2-PDC and 233499-124-R-J2-PDC colon carcinomas were obtained from the NCI Patient-Derived Models Repository (PDMR, https://pdmr.cancer.gov). The established cell lines NCI/ADR-RES (RRID:CVCL_14520 and OVCAR-5 (RRID:CVCL_1628) ovarian carcinomas, 786-O (RRID:CVCL_1051) and A498 (RRID:CVCL_A498) renal cell carcinoma, NCI-H211 (ATCC, cat. CRL-5824; RRID:CVCL_1529), NCI-H196 (ATCC, cat. CRL-5823, RRID:CVCL_1509), SW 1271 (ATCC, cat. CRL-2177, RRID:CVCL_1716) and NCI-H1876 (ATCC, cat. CRL-5902, RRID:CVCL_1503) small cell lung carcinomas, MDA-MB-231 (RRID:CVCL_0062) and MDA-MB-468 (RRID:CVCL_0419)breast carcinomas (10-12). Pooled donor human umbilical vein endothelial cells (HUVEC, Lonza, cat. CC-2519) and human mesenchymal stem cells (hMSC, Lonza, cat. PT-2501) were purchased from Lonza (Walkersville, MD).
Cell Culture. All cells were maintained in an incubator at 37 degrees C and 5% CO2 with 95% humidity. The PDC lines were cultured according to standard operating procedures established by the NCI PDMR (https://pdmr.cancer.gov). Briefly all PDCs were thawed and cultured in Matrigel-coated flasks prepared with a working solution of 1X Ham's F-12 nutrient mix, without supplementation (Invitrogen, Waltham, MA, cat. 11765054), 100 U/mL penicillin-streptomycin (Invitrogen, cat. 15140122), and 2.5% Matrigel (Corning Inc., Corning, NY, cat. 354248) for the first three passages. […]
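Also: spheroids exposed to agents for 7 days.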
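For viability, T/C in this document: 100% = DMSO vehicle control viability.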

Structure (SMILES)	viability, T/C (compound alone 1 µM)	viability, T/C (compound alone 3.16 µM)	viability, T/C (compound alone 10 µM)	other results
CC(C)CC(NC(=O)C(Cc1ccccc1)NC(=O)c1cnccn1)B(O)O (configuration not stated)				viability, T/C (compound alone 0.001 µM): 45% [2022-01] and 0.75% [2022-02]
NC1CC1c1ccc(-c2cccc(O)c2)cc1 (configuration not stated)	70.7, 69.8, 80.5, 81, 74.2, 73.5, 62.6, 87.7, 86.3, 102, 88.6 (2×), 83.3, 60.5, 64.6, 71.9, 79.8, 61, 57.4, 83.5, 71.6, 63.2, 85.2, 75.2, 74.4%	74, 79.6, 86.7, 79.2, 87.6, 74.3 (2×), 88.5, 93.8, 81.9, 95.4, 98.8, 71.1, 84.7, 75, 90.3, 89.8, 78.1, 81.8, 76.7, 75.1, 65, 70.9, 72.2, 77.4%	77.8, 78.1, 71.7, 77, 75.9, 69.1, 83.3, 93.8, 101, 104, 87.8, 118, 85.1, 95.7, 90, 97.9, 89.3, 81.4, 85.4, 79.2, 72.3, 77.7, 94.5, 88.8, 90.3%	viability, T/C (compound alone 0.316 µM): 70, 71.9, 84.7, 72.6, 79.8, 67.1, 78, 73.3, 81, 89.1, 76.5, 99.4, 60.1, 77.7, 68.2, 73.8, 79.5, 69.5, 67.3, 82.3, 73.6, 83.3, 81.1, 80.7%
CC1COCCN1c1cc(-c2ccnn2C)c2ccnc(-c3ccn[nH]3)c2n1 (configuration not stated)				IC50 (compound alone): 505 nM [2022-01] and 30.2 nM [2022-02]
O=C(C=Cc1cccc(S(=O)(=O)Nc2ccccc2)c1)NO				viability, T/C (compound alone 3 µM): 6.82% [2022-01] and 80.9% [2022-02]
CC1(C)CCC(CN2CCN(c3ccc(C(=O)NS(=O)(=O)c4ccc(NCC5CCOCC5)c([N+](=O)[O-])c4)c(Oc4cnc5[nH]ccc5c4)c3)CC2)=C(c2ccc(Cl)cc2)C1			79.6% [2022-01] and 2.83% [2022-02]	
NC1CCC(NC2CC2c2ccccc2)CC1 (configuration not stated)	89.8, 102 (2×), 90.1 (2×), 105, 108 (2×), 91.5, 114, 98.1, 93.3 (2×), 93.5, 100 (2×), 80.5, 86.2, 96.8, 90.5, 103, 94, 92.7, 87.3, 92.3%	98.2, 94.7, 89.5, 105 (2×), 98.1, 96.8, 91.2, 108, 93.6, 104, 116, 92.2, 85.7, 109, 82.6, 91.9, 96.4, 97.8, 99, 97.7, 87, 97.3, 89.2, 80.5%	77.7, 79.6, 78.2, 95.2, 92, 85.3, 84.1, 79.5, 88.9, 99.5, 70.9, 80.7, 85.6, 90.1, 90.8, 89.9, 86.9, 83.4, 75.6, 80.8, 82.8, 76.4, 71.7%	viability, T/C (compound alone 0.1 µM): 88, 89.6, 108, 112, 95.5, 91, 104 (3×), 98.5 (2×), 93.1, 102 (2×), 117, 86.4, 89.3, 85.8, 106, 111, 90.8, 83.5, 91.8, 88.1, 90%
